Measurements taken from PubChem BioAssay AID1963576 (National Center for Advancing Translational Sciences (NCATS), 2024).
The whole screen tested about 46,000 compounds, of which about 60 (0.1%) were called active. About 3% were inconclusive and are not listed. Calls come from the whole dose curve; as a rule, active = well fitted inhibition curve with a large enough effect; inconclusive = small, poorly fitted or top-dose-only effect; inactive = no such curve, though single readings can be large or run the other way. Some of the results follow.

assay: Primary qHTS assay for Inhibitors of ovarian cancer metastasis using an organotypic tumor microenvironment (TME) model.; note: nearly all actives have a fitted effect of over 65% in size;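 for activity change, negative = inhibition: plate controls were DMSO wells for no effect and tomatine positive control wells for full effect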; settings: SKOV3ip1-GFP adhesion/invasion on 3D omental model, fluorescence; series mostly up to 45.8 µM; activity change, negative = inhibition: at the top concentration
Method in brief: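 Adhesion/invasion was scored as fixed GFP-labeled SKOV3ip1 cell counts (488/509 nm), normalized to DMSO and tomatine controls. Cancer cells in serum-free medium, with four compound doses (0.36-46 umol/L), sat 2 hr at RT then 16 hr at 37 C on a 48 hr fibroblast/mesothelial/ECM culture.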

Compound | activity change, negative = inhibition | outcome
CCOC(=O)[C@H](CCc1ccccc1)N[C@H]1CCc2ccccc2N(CC(=O)O)C1=O | inactive: -19.2% | –
CCn1c(CNC(=O)C23CC4CC(CC(C4)C2)C3)nnc1SCC(=O)Nc1ccc(C)cc1 | – | inactive
CCCCC(=O)N1CC(=O)Nc2ccc(F)cc2C1c1ccc(F)cc1 (configuration not stated) | inactive: 6.5% | –
CCOc1cc(Cn2c(-c3ccc(O)c(OCC)c3)nc3ccccc32)ccc1O | inactive: -1.06% | –
COc1ccc(-n2c(-c3ccccc3F)nc3c(cnn3-c3ccc(C)cc3)c2=O)cc1 | – | inactive
Cc1cc(C)cc(NC(=O)c2nnn(Cc3cccc(Br)c3)c2N)c1 | inactive: 2.46% | –
Cc1ccc(CCNC(=O)CN2C(=O)COc3ccc(S(=O)(=O)N4CCCC4)cc32)cc1 | – | inactive
O=C(CC1C(=O)OCCN1Cc1ccccc1)Nc1cccc(Cl)c1 (configuration not stated) | inactive: 2.81% | –
CCOc1ccc(NC(=O)c2ccc(CN3C(=O)C(C)=C(c4ccc(C)cc4)S3(=O)=O)cc2)cc1 | – | inactive
Cc1ccc(C)c(NC(=O)CSc2nnc(CNC(=O)c3ccccc3)n2-c2ccccc2)c1 | – | inactive
COC1=C(OC)C(=O)C(CCCCCCCCCCO)=C(C)C1=O | inactive: 0.33% | –
CC(=O)Nc1ccccc1-c1nc2ccccc2n(C(C)C(=O)Nc2cc(Cl)ccc2C)c1=O (configuration not stated) | inactive: -2.87% | –
CCN(CC)S(=O)(=O)c1nnc(NC(=O)COc2ccc(C)cc2)s1 | inactive: 1.46% | –
CC(=O)Nc1ccc(NC(=O)CCc2c(C)nc3c(c(C)nn3-c3ccc(C)cc3)c2C)cc1 | inactive: -10.1% | –
O=C(Nc1ccccc1Cl)c1ccc(F)c(S(=O)(=O)NCc2ccc(Cl)c(Cl)c2)c1 | – | inactive
CCOC(=O)c1sc(N2C(=O)c3oc4cc(C)c(C)cc4c(=O)c3C2c2ccc(C)cc2)nc1C (configuration not stated) | inactive: 1.75% | –
COc1ccc(CN2CCCN(CC(=O)Nc3cc(C)ccc3C)S2(=O)=O)cc1 | inactive: -0.14% | –
Cn1c(=O)c2sccc2n2c(CCCC(=O)Nc3ccc(Cl)cc3)nnc12 | inactive: 5.86% | –
CCC(=O)Nc1ccccc1-c1nc2ccccc2n(Cc2cccc(Br)c2)c1=O | inactive: -1.51% | –
CCc1cccc(C)c1NC(=O)c1cc(S(=O)(=O)N(C)Cc2ccccc2)ccc1F | inactive: 2.55% | –
COc1ccc(-c2cc(OC(=O)c3ccccc3C)c3c(C)oc(C)c3c(=O)c2)cc1 | inactive: -2.04% | –
Cc1ccc(-n2ncc3c(N4CCCCC4)ncnc32)cc1Cl | inactive: 3.92% | –
CC(=O)N1CCCc2cc(S(=O)(=O)N(CCN(C)C)Cc3ccccc3)ccc21 | inactive: -1.93% | –
CCc1ccc2oc(C(=O)NCC(c3ccc(Cl)cc3)N3CCOCC3)c(C)c2c1 (configuration not stated) | inactive: -0.898% | –

Compound | activity change, negative = inhibition | outcome
CCOC(=O)c1c(C)oc2nc(C)nc(Nc3cc(C)cc(C)c3)c12 | inactive: 6.17% | –
Cc1csc2nc(COC(=O)c3ccc(F)cc3)cc(=O)n12 | inactive: 9.73% | –
O=C(CSc1nc2ccccc2n1Cc1ccc(F)cc1)N1CCN(c2ccc(F)cc2)CC1 | inactive: -6.16% | –
CCc1ccc(-c2nc(CN3CCC(C(=O)NCCc4ccc(C)cc4)CC3)c(C)o2)cc1 | inactive: 9.09% | –
Cc1nnc(N2CCC(C(=O)NCCc3ccccc3)CC2)c2nn(-c3ccccc3)c(C)c12 | inactive: -7.41% | –
O=C(Nc1ccc(OCc2cc(=O)n3ccsc3n2)cc1)c1ccc(F)cc1 | inactive: -17.2% | –
COc1ccc(CNC(=O)CSCc2nc(-c3ccccc3F)oc2C)cc1 | inactive: 5.34% | –
Cc1ccc(C)c(NC(=O)Cn2cnc3c(oc4ccccc43)c2=O)c1 | inactive: 15% | –
CCc1ccc(C2=CC(c3cccc(C)c3)n3c(nc4ccccc43)N2)cc1 (configuration not stated) | inactive: -6.91% | –
Cc1cccc(N(CC(=O)NCc2ccccc2)S(C)(=O)=O)c1C | inactive: 1.9% | –
Cc1cc(C)c2c(=O)cc(C(=O)Nc3ccc(C)c(Cl)c3)oc2c1 | – | inactive
COc1ccc(NC(=O)C(c2ccccc2)N2Cc3ccccc3C2=O)cc1 (configuration not stated) | inactive: -23.1% | –
C=CC(=O)Nc1cc(NC(=O)c2ccc(C)c(NC(=O)c3ccno3)c2)cc(C(F)(F)F)c1 | inactive: -10.7% | –
COc1ccccc1-c1cc(C(=O)N2CCN(c3ccccc3)CC2)no1 | – | inactive
COCCn1c(-c2ccccc2)c(C)n2c3c(=O)n(C)c(=O)n(C)c3nc12 | – | inactive
Cc1ccccc1OCCn1cc(C(=O)C2CCCCC2)c2ccccc21 | inactive: -0.59% | –
CCC(=O)N1c2ccccc2CC1C(=O)NCCc1ccc(SC)cc1 (configuration not stated) | – | inactive
CCOC(=O)Cn1c(C2CC(=O)N(c3ccc(C)cc3)C2)nc2ccccc21 (configuration not stated) | inactive: 3.5% | –
O=[N+]([O-])c1ccc(C(c2sc3nc(-c4ccco4)nn3c2O)N2CCN(Cc3ccccc3)CC2)cc1 (configuration not stated) | inactive: 1.14% | –
O=C(Nc1ccc2c(c1)OCO2)c1cc(-c2cccc(Cl)c2)on1 | inactive: 1.38% | –
Cc1ccc(C)c(N2CCN(C(=O)Cn3cnc4sc(C)c(S(=O)(=O)N5CCN(c6ncccn6)CC5)c4c3=O)CC2)c1 | – | inactive
COc1ccc(C)cc1Nc1c2c(nc3ccccc13)CCC2 | inactive: 0.0845% | –
O=C(COc1ccccc1)Nc1nnc2n1CCS2 | – | inactive
